Whole data set: some 33,000 sequences, median “E-score (-0.5 to 0.5)” near -0.041, cut for the highest 2% near 0.37. This is one part of the list.
biological target: T1, Ecm22 (UniProt Q05958); assay: PBM E-score (8-mer binding enrichment) (E-score (-0.5 to 0.5)); higher = stronger / more preferred TF binding; most listed sequences are background and not binding sites; conditions: protein concentration: 200 nM; construct: GST-full length
T1 sequence: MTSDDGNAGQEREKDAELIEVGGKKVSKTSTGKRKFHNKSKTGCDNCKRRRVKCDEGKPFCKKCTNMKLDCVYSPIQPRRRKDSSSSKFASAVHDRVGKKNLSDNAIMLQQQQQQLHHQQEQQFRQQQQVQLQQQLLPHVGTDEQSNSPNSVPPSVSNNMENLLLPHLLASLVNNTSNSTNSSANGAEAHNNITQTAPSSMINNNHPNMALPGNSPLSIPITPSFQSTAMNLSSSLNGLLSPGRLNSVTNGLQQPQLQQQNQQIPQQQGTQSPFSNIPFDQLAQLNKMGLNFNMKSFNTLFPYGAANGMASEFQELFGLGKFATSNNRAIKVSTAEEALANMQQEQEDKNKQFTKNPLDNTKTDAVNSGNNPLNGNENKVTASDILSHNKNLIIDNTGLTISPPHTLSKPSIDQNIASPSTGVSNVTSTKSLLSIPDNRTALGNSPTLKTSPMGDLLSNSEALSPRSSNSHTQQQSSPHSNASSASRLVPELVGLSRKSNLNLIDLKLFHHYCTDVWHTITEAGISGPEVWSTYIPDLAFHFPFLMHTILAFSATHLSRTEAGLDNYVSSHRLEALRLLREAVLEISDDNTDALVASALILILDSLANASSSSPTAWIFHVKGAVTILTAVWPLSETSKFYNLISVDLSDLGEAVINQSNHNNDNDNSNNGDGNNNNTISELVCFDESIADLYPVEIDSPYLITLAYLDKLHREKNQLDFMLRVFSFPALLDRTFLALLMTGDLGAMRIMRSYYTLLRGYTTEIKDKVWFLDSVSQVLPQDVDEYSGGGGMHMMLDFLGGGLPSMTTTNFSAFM
Description: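 Universal 'all 10-mer' protein binding microarrays (Agilent AMADID 015681) probed with GST-tagged S. cerevisiae TFs (full-length or DBD) made by in vitro transcription/translation (PURExpress), about 100-200 nM. Bound TF was detected with fluorescent anti-GST. Each ungapped 8-mer (which stands for itself and its reverse complement) is scored by the PBM enrichment score (E-score), a modified Wilcoxon-Mann-Whitney statistic from -0.5 to +0.5, computed with the Universal PBM Analysis Suite. Scale: above 0.35 generally sequence-specific binding.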

Sequence	PBM E-score
GGTGGGAA	0.0319
ATCCTTGA	-0.0912
CGAGATGC	0.158
GGGACCCA	-0.0963
ACCCTCAA	-0.203
ATATCAGG	-0.174
AATTTCCG	0.247
TACTGTAA	0.119
CGCCATGA	-0.217
ATTGTCTC	-0.0281
TGAAACCA	-0.175
CTATAGTA	-0.0956
AGTAGGCG	-0.00833
CAACTCGA	-0.0476
ACGACTGA	0.283
CGGTGGAG	0.156
CTCAAGCC	-0.099
CGGCCGAA	-0.0209
GAGAGAGC	0.068
AGCCTTAT	-0.0126
GACGGACA	0.0517
GGGATCAA	-0.128

Sequence	PBM E-score
AAGTAATT	-0.0507
AGGCCGTG	-0.255
ATTATTTC	0.104
CCTCCCAG	-0.239
CACAACGC	-0.0388
AGTAGCTA	-0.0708
CTATCCAG	-0.218
GAATGCGA	0.24
AGCATACA	-0.0251
GTTTCGGA	0.215
GGTAGCAC	-0.275
CGACACTA	0.0746
AGAACAAC	-0.0888
CATTTATA	-0.00296
GCCGTGGA	-0.0482
AAGCCCTT	-0.253
CATACCCA	-0.188
AGGGGACG	-0.24
CTGGTTCA	-0.179
GTGTACGA	0.481
ACAAGCAC	-0.11
AAAAAGTG	-0.0144

Sequence	PBM E-score
CCGGTCGC	0.209
ATAGTGAT	0.176
CCTGAAAA	-0.0855
GCCCAGAC	-0.248
AATAAGTA	0.0089
AGTCCAAC	-0.27
GGGGTTCA	-0.242
ATCTTTCA	-0.0605
AGTCTTGC	-0.122
AGATTTGA	-0.0348
GCGCCCTA	-0.00313
TAGAAAGA	-0.22
AATAGGAG	-0.144
GACGCAGC	-0.096
ACTAGGAG	-0.352
AGAAGCGC	-0.0279
AATTGAAG	-0.185
ACTCTTAC	0.0982
AAGTGTAG	-0.214
CGGTCCGA	0.294
ATTACGAC	0.367
GAGTCCCA	-0.123

Sequence	PBM E-score
AAACTTAA	-0.0485
CCCGTTCC	0.447
AGTTAGGG	-0.182
AATCTTCC	-0.0465
GAGATTCC	-0.00657
AGAAGTCT	-0.299
ATGTTAGG	-0.0839
AGAACACC	-0.119
CTACATTA	0.0115
CACAAACA	-0.108
ATCTAATG	-0.0391
CCATTAGA	-0.282
ACACAAGA	-0.237
AGACCGGG	-0.0833
CTCGAATC	-0.0398
CCCGGGCA	-0.155
CATGTCCG	-0.0838
AGCGCTAG	-0.143
CTACCTCA	-0.073
ACGCAAGG	-0.01
